The results in this text go back to the supplement of paper PMC10369915.

Targets include SHP2 C-SH2 domain E139D; SHP2 N-SH2 domain L43F; SHP2 N-SH2 domain T42A; SHP2 N-SH2 domain T52S.
Holding throughout (assay): enrichment score (SH2-bound / input frequency) (ratio); bacterial display of known human phosphotyrosine sites (pTyr-Var adds point mutants) read by sequencing; higher = stronger binding; tyrosines were phosphorylated by kinases first
What all share (settings): peptide library: pTyr-Var

In assay [1] the target is SHP2 C-SH2 domain wild-type.
The target of assay [2] is SHP2 N-SH2 domain wild-type.

Some of the results follow. No stated cut-off is given here; in the data, active = 3.2 or more and inactive = the rest. The signal is at background level for most entries.
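Further: displayed peptides selected on beads carrying the immobilized SH2 domain, with library peptides lacking any tyrosine serving as negative controls.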

B1: OTC_Y345 (peptide)
chain: SLLTDYSPQLQ
For the molecule B1, the enrichment score with SHP2 C-SH2 domain E139D was inactive: 0.732; in assay [1], inactive: 0.786; in the assay with SHP2 N-SH2 domain L43F it was inactive: 0.666; with SHP2 N-SH2 domain T42A it was inactive: 1.09; with SHP2 N-SH2 domain T52S it was inactive: 0.927; in assay [2], inactive: 0.95.

B2: PABPC5_Y149_G146A (peptide)
chain: SKAYAYVHFDS
B2: the enrichment score in the assay with SHP2 C-SH2 domain E139D was inactive: 2.95; in assay [1], active: 4.72; in the assay with SHP2 N-SH2 domain L43F it was active: 3.85; with SHP2 N-SH2 domain T42A it was active: 7.41; in the assay with SHP2 N-SH2 domain T52S, active: 4.52; in assay [2], inactive: 2.22.

B3: OTC_Y55_M56T (peptide)
chain: GEEIKYTLWLS
As to B3, the enrichment score with SHP2 C-SH2 domain E139D was inactive: 0.61; in assay [1], inactive: 0.989; in the assay with SHP2 N-SH2 domain L43F it was inactive: 0.88; with SHP2 N-SH2 domain T42A it was inactive: 0.722; with SHP2 N-SH2 domain T52S, inactive: 0.795; in assay [2] it was inactive: 1.4.

B4: P3H4_Y181_YF (peptide)
chain: ELTAKYLNFFQ
Regarding B4, the enrichment score was inactive: 1.35 with SHP2 C-SH2 domain E139D; inactive: 1.34 in assay [1]; inactive: 1.3 in the assay with SHP2 N-SH2 domain L43F; inactive: 2.01 with SHP2 N-SH2 domain T42A; inactive: 1.39 with SHP2 N-SH2 domain T52S; inactive: 1.28 in assay [2].

B5: PABPC5_Y147_G146A (peptide)
chain: NGSKAYAYVHF
On to B5, for which the enrichment score with SHP2 C-SH2 domain E139D is inactive: 2.7; in assay [1], active: 4.65; with SHP2 N-SH2 domain L43F, inactive: 2.97; with SHP2 N-SH2 domain T42A, active: 6.47; with SHP2 N-SH2 domain T52S, active: 3.84; in assay [2], inactive: 1.33.

B6: OTC_Y55_G50R (peptide)
chain: REEIKYMLWLS
Regarding B6, the enrichment score with SHP2 C-SH2 domain E139D was inactive: 0.971; in assay [1], inactive: 1; in the assay with SHP2 N-SH2 domain L43F it was inactive: 0.843; with SHP2 N-SH2 domain T42A, inactive: 1.14; with SHP2 N-SH2 domain T52S, inactive: 0.947; in assay [2] it was inactive: 1.58.

B7: OTC_Y345_T343K (peptide)
chain: SLLKDYSPQLQ
For B7, the enrichment score in the assay with SHP2 C-SH2 domain E139D was inactive: 0.847; in assay [1] it was inactive: 0.851; with SHP2 N-SH2 domain L43F, inactive: 1.05; with SHP2 N-SH2 domain T42A, inactive: 0.755; with SHP2 N-SH2 domain T52S, inactive: 1.06; in assay [2], inactive: 1.03.

B8: PAH_Y166_G171R_YF (peptide)
chain: FADIAYNFRHR
As to B8, the enrichment score was inactive: 0.594 with SHP2 C-SH2 domain E139D; inactive: 0.549 in assay [1]; inactive: 0.556 with SHP2 N-SH2 domain L43F; inactive: 0.546 with SHP2 N-SH2 domain T42A; inactive: 0.71 in the assay with SHP2 N-SH2 domain T52S; inactive: 0.615 in assay [2].

B9: P2RX7_Y291_YF (peptide)
chain: SLFPGYNFRFA
For the molecule B9, the enrichment score in the assay with SHP2 C-SH2 domain E139D was inactive: 1.63; in assay [1], inactive: 1.39; in the assay with SHP2 N-SH2 domain L43F it was inactive: 1.54; with SHP2 N-SH2 domain T42A it was inactive: 1.66; in the assay with SHP2 N-SH2 domain T52S, inactive: 1.54; in assay [2], inactive: 1.93.

B10: OTULIN_Y244_Y244C (peptide)
chain: RAIELCNDKEK
On to B10, for which the enrichment score with SHP2 C-SH2 domain E139D is inactive: 0.632; in assay [1], inactive: 0.654; with SHP2 N-SH2 domain L43F, inactive: 0.467; with SHP2 N-SH2 domain T42A it was inactive: 0.475; with SHP2 N-SH2 domain T52S, inactive: 0.442; in assay [2], inactive: 0.534.

B11: PAH_Y166_G171A_YF (peptide)
chain: FADIAYNFRHA
B11: the enrichment score in the assay with SHP2 C-SH2 domain E139D is inactive: 0.984; in assay [1], inactive: 1.12; with SHP2 N-SH2 domain L43F, inactive: 1.1; with SHP2 N-SH2 domain T42A it was inactive: 1.34; with SHP2 N-SH2 domain T52S it was inactive: 1.24; in assay [2], inactive: 1.14.

B12: P2RX7_Y343_A348T (peptide)
chain: GSTLSYFGLAT
Turning to B12, the enrichment score is inactive: 0.932 with SHP2 C-SH2 domain E139D; inactive: 1.04 in assay [1]; inactive: 0.978 in the assay with SHP2 N-SH2 domain L43F; inactive: 1.09 with SHP2 N-SH2 domain T42A; inactive: 0.701 with SHP2 N-SH2 domain T52S; inactive: 1.09 in assay [2].

B13: OTOF_Y1231_R1236Q (peptide)
chain: LRRFIYRPPDQ
B13: the enrichment score with SHP2 C-SH2 domain E139D is inactive: 0.187; in assay [1], inactive: 0.294; with SHP2 N-SH2 domain L43F, inactive: 0.375; with SHP2 N-SH2 domain T42A, inactive: 0.325; with SHP2 N-SH2 domain T52S, inactive: 0.367; in assay [2], inactive: 0.258.

B14: OTC_Y55_Y55D (peptide)
chain: GEEIKDMLWLS
In the case of B14, the enrichment score with SHP2 C-SH2 domain E139D was inactive: 0.718; in assay [1], inactive: 0.651; with SHP2 N-SH2 domain L43F, inactive: 0.637; in the assay with SHP2 N-SH2 domain T42A, inactive: 0.679; with SHP2 N-SH2 domain T52S, inactive: 0.688; in assay [2] it was inactive: 0.733.

B15: PABPC5_Y147 (peptide)
chain: NGSKGYAYVHF
For B15, the enrichment score with SHP2 C-SH2 domain E139D is inactive: 1.73; in assay [1] it was active: 3.82; with SHP2 N-SH2 domain L43F, active: 3.22; with SHP2 N-SH2 domain T42A it was active: 8.17; with SHP2 N-SH2 domain T52S, active: 4.09; in assay [2] it was inactive: 1.47.

B16: PABPC4_Y382 (peptide)
chain: HLTNQYMQRVA
On to B16, for which the enrichment score with SHP2 C-SH2 domain E139D was inactive: 0.777; in assay [1], inactive: 0.844; with SHP2 N-SH2 domain L43F, inactive: 0.967; in the assay with SHP2 N-SH2 domain T42A, inactive: 0.603; in the assay with SHP2 N-SH2 domain T52S, inactive: 0.727; in assay [2], inactive: 0.838.

B17: PAH_Y166_H170Q (peptide)
chain: FADIAYNYRQG
As for B17, the enrichment score is inactive: 0.99 in the assay with SHP2 C-SH2 domain E139D; inactive: 0.85 in assay [1]; inactive: 1.06 with SHP2 N-SH2 domain L43F; inactive: 0.847 with SHP2 N-SH2 domain T42A; inactive: 0.919 with SHP2 N-SH2 domain T52S; inactive: 0.95 in assay [2].

B18: OTC_Y55_S60L (peptide)
chain: GEEIKYMLWLL
Turning to B18, the enrichment score was inactive: 2.43 with SHP2 C-SH2 domain E139D; inactive: 2.52 in assay [1]; inactive: 2.18 with SHP2 N-SH2 domain L43F; inactive: 2.06 in the assay with SHP2 N-SH2 domain T42A; inactive: 2.43 with SHP2 N-SH2 domain T52S; inactive: 2.11 in assay [2].

B19: P2RX7_Y343 (peptide)
chain: GSTLSYFGLAA
B19: the enrichment score in the assay with SHP2 C-SH2 domain E139D is inactive: 0.995; in assay [1] it was inactive: 0.919; with SHP2 N-SH2 domain L43F, inactive: 1.04; with SHP2 N-SH2 domain T42A, inactive: 0.733; in the assay with SHP2 N-SH2 domain T52S it was inactive: 1.09; in assay [2], inactive: 0.925.
